Experimental findings from the RNAGym collection of RNA variant scans (doi:10.1093/nar/gkz1192) are described below.

The source gives no read counts; variants with many changes may rest on few reads.

B1: CPEB3 Ribozyme (parent)
chain: UAACAGGGGGCCACAGCAGAAGCGUUCACGUCGCAGCCCCUGUCAGAUUCUGGUGAAUCUGCGAAUUCUGCUGUAUAUCUC

The variants in this data set derive from B1. The data set is described as follows: self-cleavage, relative activity (ratio to wild type); higher = more cleavage; in vitro, sequencing. The method, boiled down: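 Barcoded CPEB3 ribozyme mutants, produced by rounds of error-prone PCR, self-cleaved while being transcribed with T7 RNA polymerase for 5 hours at 37°C and during a subsequent 15 min DNase I step before EDTA was added. Sequencing of template-switched cDNA on Illumina gave cleaved and total reads, and DNA sequencing assigned barcodes to variants. Each variant's relative activity is its cleaved/total read fraction divided by the unmutated ribozyme's fraction, averaged across three batches. A variant needed a minimum of 5 reads.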
In the case of UAACAGGGGGCCACAGCAGAAGCGUUCAGGACGCAGCCCUAGUCAGGUUCUGGUGAAUCUGCGAAUUCUGCUGUAUAUCUC [C29G U31A C40U U41A A47G], the self-cleavage came out at 0.23. As for UAACAGGGGGCCACAGCAGAAGCGUUCUCGUCGCAGCCCCUGUCAGAUUCCGGUGAAUCUGCGGAUUCUGCGGUAUAUCCC [A28U U51C A64G U72G U80C], the figure is 0.29; as for UAACAGGGGGCCACAGCAGAAGCGUUCUCGUCGCAGCCCCUGCCAGAUUCUGGUGAACCUGCGAAUUCCGCUGUAUAUCUC [A28U U43C U58C U69C], 0.16; as for UAACAGGGGGCCACAGCAGAAGCGUUCUCGUCGCAGCCCCUGCCAGAUUCUUGUGAAUCUGCGAAUUCUGCUGUAUAUCUC [A28U U43C G52U], 0.19. The figure for UAACAGGGGGCCACAGCAGAAGCGUUCUCGUCGCAGCCCCUGUCAGAUUCAGGUGAAUCUGCGAGUUCUGCUGUAUAUCUC [A28U U51A A65G] is 0.36; for UAACAGGGGGCCACAGCAGAAGCGUUCUCGUCGCAGCCCCUGCCAGUUUCCGGUGAAUCGGCGAAUUCUGCUGUGUAUCUC [A28U U43C A47U U51C U60G A75G] it is 0.07; for UAACAGGGGGCCACAGCAGAAGCGUUCUCGUCGCAGCCCCUGUCAGAUACUGGUGAAUCUGCGAAUUCUGCUGUAUAUUUC [A28U U49A C79U] it is 0.57. With UAACAGGGGGCCACAGCAGAAGCGUUCUCGUCGCAGCCCCUGUCAGAUUCCGGUGAAACUGCGAAUUAUGCGGUAUGUCUC [A28U U51C U58A C68A U72G A77G], the self-cleavage was determined as 0.21. As for UAACAGGGGGCCACAGCAGAAGCGUUCAGGUCGCGGCCCCUGUCAGAUUCUGGUGAAUCUGCGGAUUCUGCUGUAUAUCUC [C29G A35G A64G], the figure is 0.49; as for UAACAGGGGGCCACAGCAGAAGCGUUCAGGUUGCCGCCCCUGUCAGAUACUGGUGAAUCUGCGAAUUCUGCUGUAUAUCCC [C29G C32U A35C U49A U80C], 0.24. The figure for UAACAGGGGGCCACAGCAGAAGCGUUCUCGUCGCAGCCCCUGUCAGAAUCUGGUGAAUCUGCGAAUUCUACUGUACAUCUC [A28U U48A G70A U76C] is 0.06. The figure for UAACAGGGGGCCACAGCAGAAGCGUUCAAGUCGCAGCCCCUGUCAGAUUCUGGUGAAUCCGCGAAUUCUGCCGUAUAUCUC [C29A U60C U72C] is 0.08.

Turning to UAACAGGGGGCCACAGCAGAAGCGUUCUCGUCGCAGCCCCUGUCAGAUUCUGGCGAAUCUGCGAAUUCUGCCGUAUAUCUC [A28U U54C U72C], the self-cleavage was 0.84. The figure for UAACAGGGGGCCACAGCAGAAGCGUUCAAGUCGCGGCCCCUGUCAGAUUCCGGUGAACCUGCGAAAUCUGCUGUACAUCUC [C29A A35G U51C U58C U66A U76C] is 0.21. Turning to UAACAGGGGGCCACAGCAGAAGCGUUCUCGUCGCAGCCCCUGUCAGAUUCUGGAGAAUCUGCGAAUUCUGCCGUAUAUCUC [A28U U54A U72C], the self-cleavage stood at 0.42. As for UAACAGGGGGCCACAGCAGAAGCGUUCUCGUCGCAGCCCCUGUCAGAUCCUGGUGAGUCUGCGAAUUCUGCCGUAUAUCUC [A28U U49C A57G U72C], the figure is 0.16; as for UAACAGGGGGCCACAGCAGAAGCGUUCAGGUCGAGGCCCCUGUCAGAUUCUGGUGAAUCUGCGAAUUCUGCUGUAUAUCUC [C29G C34A A35G], 0.11; as for UAACAGGGGGCCACAGCAGAAGCGUUCAAGCCGCAGCCCUUGUCAGAUUCUGGUGAAUCUGCGAAUUCUGCUGUAUAUCUC [C29A U31C C40U], 0.14. The figure for UAACAGGGGGCCACAGCAGAAGCGUUCUCGUCGCAGCCCCUGUCAGAUUCUGGUGAAUCUGCGAAUUCUGCCGUAUAACUC [A28U U72C U78A] is 1.11; for UAACAGGGGGCCACAGCAGAAGCGUUCAAGUCGCAGCCCCUGUCAGAUUCUUGUGAAUCUGCGGAUUCUGCUGUAUAUCUC [C29A G52U A64G] it is 0.16; for UAACAGGGGGCCACAGCAGAAGCGUUCAGGUCACAGCCCCUGUCAGACUCUGGUGAAUCUGCGAAUUCUGCUGUAUAUCUC [C29G G33A U48C] it is 0.07. On to UAACAGGGGGCCACAGCAGAAGCGUUCUCGUCGCAGCCCCUGUCAGAUUCUGGCGAAUCUGCGAAUUCUGCUGUAUGUCUC [A28U U54C A77G], for which the self-cleavage was 0.75.

Turning to UAACAGGGGGCCACAGCAGAAGCGUUCUCGUCGCAGCCCCUGUCAGAUUCGGGCGAAUCUGCGAAUUCUGCUGUAUAUCUC [A28U U51G U54C], the self-cleavage stood at 0.61. As for UAACAGGGGGCCACAGCAGAAGCGUUCAGGUCGCGGCCCCUGUCAGAUUCUGGUGAAUCUGCGAUUUCAGCAGUAUAUCUC [C29G A35G A65U U69A U72A], the figure is 0.1. Take UAACAGGGGGCCACAGCAGAAGCGUUCAAGUCGCAGCCACUGUCAGAUUCUGGUGAAUCAGCGAAUUCUGCUGUAUAUCUC [C29A C39A U60A]: the self-cleavage was found to be 0.36. The figure for UAACAGGGGGCCACAGCAGAAGCGUUCAAGUCGCAGCCCCUGUCCGAUUCUGGUGAAUCUGCGAAUUCUGCUGGAUAUCUC [C29A A45C U74G] is 0.15. The figure for UAACAGGGGGCCACAGCAGAAGCGUUCUCGUCGCAGCCCCUGUCAGACUCUGGUGAAUCUGCGGAUUCUGCUGUAAGUCUC [A28U U48C A64G U76A A77G] is 0.14; for UAACAGGGGGCCACAGCAGAAGCGUUCUCGUCGCAGCCCCUGUCAGAUUCUGGUGAAUCUGCGAAUUCUGCCGUAUAUCAC [A28U U72C U80A] it is 1.07. The figure for UAACAGGGGGCCACAGCAGAAGCGUUCAAGUCGCAGCCCCUGUCAGAUUCUGGUGAAUCUGCGAAUUCUGCUGAAUGUCUC [C29A U74A A77G] is 0.59; for UAACAGGGGGCCACAGCAGAAGCGUUCAAGUCGCAGCCCCUGUCUGAUUCUGGUGAAUCUGCGUAUCCUGCUGUAUAUCUC [C29A A45U A64U U67C] it is 0.16; for UAACAGGGGGCCACAGCAGAAGCGUUCUCGUCGCAGCCCCUGUCAGACUCUGGCGAAUCUGCGAAUUCUGCUGUAUAUCUC [A28U U48C U54C] it is 0.39.

Regarding UAACAGGGGGCCACAGCAGAAGCGUUCUCGUCGCAGCCCCUGUCAGAUUCUGGUGAAUCUGCGAAUACCGCUGUAUACCUC [A28U U67A U69C U78C], the self-cleavage worked out at 0.12. As for UAACAGGGGGCCACAGCAGAAGCGUUCAAGUCGCAGCCCCCGUCAGUUUCUGGUGAAUCUGCGAAUUCUGCUGUAUAUCUC [C29A U41C A47U], the figure is 0.08; as for UAACAGGGGGCCACAGCAGAAGCGUUCUCGUCGCAGCCCCUGUCAGAUCCUGGUGAGUCUGCGUAUUCUGCUGUAUAUCCC [A28U U49C A57G A64U U80C], 0.13.
